Measurements taken from PubChem BioAssay AID493208 (National Center for Advancing Translational Sciences (NCATS), 2011).
In all, about 44,000 compounds went through this assay and about 340 (0.77%) were called active. Another 5% or so got no clear call; they are omitted. The call rests on the fitted dose curve; in most records, active means well fitted inhibition curve with a large enough effect; inconclusive means small, poorly fitted or top-dose-only effect; inactive means flat fitted curve, though single readings scatter. The list shows a part of the results.

Test: Acumen qHTS Assay for Inhibitors of the mTORC1 Signaling Pathway in MEF (Tsc2-/-, p53-/-) Cells: Sytravon; further: nearly all actives have a fitted effect of over 50% in size;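 on activity change, negative = inhibition: plate controls were DMSO for no effect and rapamycin for full effect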
Details: phospho-rpS6 immunofluorescence/PI, 24 h; series mostly up to 38.3 µM; activity change, negative = inhibition: at the top concentration
In short: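 Read-out: phospho-S6 Alexa-488 intensity over PI intensity per well, scored as % active cells using thresholds from rapamycin (7.5 nM) and DMSO controls. Tsc2-/-, p53-/- MEFs exposed to compound for 24 h; PI cell count recorded as viability.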
Potency means the concentration at half of the fitted maximal effect.

Row | SMILES | activity change, negative = inhibition | Potency
1 | Cc1ccc(OCC(=O)OCc2cc(=O)n3nc(C4CC4)sc3n2)cc1 | inactive: 1.38% | 
2 | COCCCNC(=O)C1CCN(c2cc(C)nc3c(-c4ccc(Cl)cc4)c(C)nn23)CC1 | inactive: -4.21% | 
3 | CCOC(=O)Cn1c(=O)n(-c2ccccc2OC)c2nc(-c3ccc(C(C)C)cc3)nc(C(N)=O)c21 | inactive: 3.62% | 
4 | COc1ccc(C(=O)NCCn2cc(SCC(=O)Nc3ccc4c(c3)OCCO4)c3ccccc32)cc1OC | inactive: -13.2% | 
5 | CC(C)CC1Nc2ccc(C(=O)NCCCOC(C)C)cc2NC1=O (configuration not stated) | inactive: -14.9% | 
6 | CCc1nn2c(=O)cc(COC(=O)C(CC)c3ccccc3)nc2s1 (configuration not stated) | inactive: 1.34% | 
7 | CCOC(=O)c1c(Oc2ccc(C(C)=O)cc2)nnc(-c2ccccc2)c1-c1ccccc1 | inactive: -4.63% | 
8 | CCCNC(=O)CSc1nc(-c2ccc(OC)cc2)cc(C(F)(F)F)n1 | inactive: -0.342% | 
9 | O=C(CC1N=C2c3ccccc3N=C(SCC(=O)Nc3ccc(F)cc3)N2C1=O)NCc1cccs1 (configuration not stated) | inactive: 0.357% | 
10 | COc1ccc2c(CNCc3cccs3)c(C(=O)O)n(Cc3ccccc3F)c2c1 | inactive: 5.05% | 
11 | O=C(NCc1ccccc1)c1ccc2oc(=O)n(Cc3ccccc3)c2c1 | inactive: 0% | 
12 | COc1ccc(CC(=O)N2CCc3cc(OC)c(OC)cc3C2COc2ccc(F)cc2)cc1OC (configuration not stated) | inactive: 1.14% | 
13 | CN(C)c1ccc(NC(=O)CSC2=Nc3ccccc3C3=NC(CCC(=O)NCc4cccs4)C(=O)N23)cc1 (configuration not stated) | inactive: -4.21% | 
14 | Cn1c(SCC(=O)Nc2nc3ccccc3s2)ncc(C(=O)Nc2ccc(F)cc2)c1=O | inactive: -0.458% | 
15 | COc1cccc(C(=O)Nc2cccc(C(=O)OCc3cc(=O)n4c(C)csc4n3)c2)c1 | inactive: 12.9% | 
16 | NS(=O)(=O)c1ccc2nc(NC(=O)COc3ccc(Cl)cc3Cl)sc2c1 | inactive: 9.65% | 
17 | Cc1c(C(=O)NC(C)c2ccccc2)sc2nc3n(c(=O)c12)CCCC3 (configuration not stated) | inactive: 7.01% | 
18 | CCOC(=O)COc1ccc(C)cc1C(=O)c1ccn2nc(-c3ccc(F)cc3)cc2n1 | inactive: -1.9% | 
19 | CC1CCN(C(=O)c2cccc(NC(=O)c3nsc4ccccc34)c2)CC1 | inactive: 5.08% | 
20 | Cc1nc2scc(C)n2c(=O)c1S(=O)(=O)Nc1cccc(C(F)(F)F)c1 | inactive: -23% | 
21 | CCOc1ccc(-n2nc3ccc(NC(=O)c4ccc(-c5cccc(Cl)c5)o4)cc3n2)cc1 |  | active: 11.7 µM
22 | CN1CCc2nc3sc(C(=O)Nc4ccccc4C(F)(F)F)c(N)c3cc2C1 | inactive: -7.89% | 
23 | COc1ccccc1Cc1nc2ccccc2nc1SCC(=O)NCc1ccccc1Cl | inactive: -20.7% | 
24 | CC1=C(C(=O)OC2CCCCCC2)C(c2cccc(Cl)c2)CC(=O)N1 (configuration not stated) | inactive: -21.4% | 

Row | SMILES | activity change, negative = inhibition | Potency
25 | CCCC1=Nc2cc(C(=O)N3CCC(C)CC3)ccc2Sc2ccc(C)cc21 | inactive: -9.51% | 
26 | Cc1ccc2c(=O)c(C(=O)c3cccc(Cl)c3)cn(CC(=O)Nc3ccccc3C(F)(F)F)c2n1 | inactive: 3.3% | 
27 | COc1ccccc1C(=O)OCc1cc(=O)n2nc(C(C)C)sc2n1 | inactive: 0% | 
28 | CC1=Nc2cc(C(=O)NCCc3ccc(Cl)cc3)ccc2Sc2c(C)ccc(C)c21 | inactive: -11.2% | 
29 | CCOC(=O)CC(=O)CSc1nc2ccccc2c(=O)n1CCc1ccc(S(N)(=O)=O)cc1 | inactive: 0.0373% | 
30 | CC1CCCCN1CCCNC(=O)c1cc(Sc2ccc(Cl)cc2)nc2ccccc12 (configuration not stated) | inactive: -18.5% | 
31 | COc1ccccc1CNC(=O)c1oc2ccc3c(c2c1C)C(=O)CC(C)(C)O3 | inactive: -3.26% | 
32 | COc1ccc(-c2noc(-c3ccc(NCC4CCCO4)c([N+](=O)[O-])c3)n2)cc1OC (configuration not stated) | inactive: 5.66% | 
33 | CC(=O)Nc1ccc(NC(=O)CCS(=O)(=O)c2ccc3c(c2)CC(=O)N3C)cc1 | inactive: -0.14% | 
34 | Cc1ccc(C)c(CNC(=O)c2cc3ccccn3n2)c1 | inactive: 10.2% | 
35 | COc1ccc(NC(=O)Cn2cc(S(=O)(=O)Cc3ccc(F)cc3)c3ccccc32)cc1OC | inactive: -6.17% | 
36 | CCOC(=O)C1CCC(CN(Cc2cccc(Br)c2)S(=O)(=O)c2ccc(Cl)cc2)CC1 (configuration not stated) | inactive: 3.49% | 
37 | CCOC(=O)N1CCc2c(sc3c2C(=O)NC(c2ccccc2F)N3)C1 (configuration not stated) | inactive: -6.73% | 
38 | COc1ccc(N2CC(NC(=O)COc3ccc4ccccc4c3)CC2=O)cc1OC (configuration not stated) | inactive: -12.6% | 
39 | CCN1C(=O)C(Cc2nc3ccccc3c(=O)n2-c2ccc(OC)cc2)c2ccccc21 (configuration not stated) | inactive: 4.78% | 
40 | CC1Cc2cc(S(=O)(=O)NCc3ccc(N(C)C)cc3)ccc2N1C(=O)C1CCC1 (configuration not stated) | inactive: -2.39% | 
41 | Cc1ccc(-n2c(=O)c3c4c(sc3n(CC(=O)Nc3ccccc3C)c2=O)CCCCC4)cc1C | inactive: 2.03% | 
42 | COc1ccccc1CNc1nccn(-c2ccccc2)c1=O | inactive: -0.429% | 
43 | CCN(CC)c1ccc(-c2nc(-c3ccco3)no2)cc1[N+](=O)[O-] | inactive: 3.18% | 
44 | CCC(C)NC(=O)c1sc2nc(C)c(C(=O)Nc3ccc(C)cc3C)c(-c3ccccc3Cl)c2c1N (configuration not stated) | inactive: 13.5% | 
45 | COc1ccc(NC(=O)c2cnc(N3CCCCC3)c3ccccc23)cc1Cl | inactive: -6.34% | 
46 | Cc1ccc(CCNC(=O)c2ccc3c(=O)n(-c4ccccc4)c(=O)[nH]c3c2)cc1 | inactive: -11.9% | 
47 | Cn1cc(S(=O)(=O)N2CCCCC2)cc1C(=O)Nc1cccc(C#N)c1 | inactive: -4.49% | 
